The inconclusive results got no clear call from the source; some entries with a clear call stand among them for comparison. For part of these data: No potency is given beside an inconclusive call; the fits are too rough. Calls of active or inactive are those of the source. Unless noted, the call rests on the fitted dose curve; in most records, active means well fitted curve in the direction sought with a large enough effect; inconclusive means small, poorly fitted or top-dose-only effect, or another doubt; inactive means no such curve, though single readings can be large; an effect the other way counts as inactive or inconclusive.
Assays:
[1] = target: Rap guanine nucleotide exchange factor 3 (Homo sapiens) (UniProt O95398); experiment: Confirmatory qHTS for agonist of cAMP-regulated guanine nucleotide exchange factor 3 (EPAC1) (AID 1645881); conditions: EPAC1 Rap1B BODIPY-GDP exchange fluorescence; activation: at 154 µM (top of the series), 100% = cAMP control response; further: potency means the concentration at half of the fitted maximal effect; nearly all actives have a fitted effect of over 75% in size
[2] = target: Rap guanine nucleotide exchange factor 4 (Homo sapiens) (UniProt Q8WZA2); experiment: Confirmatory qHTS for agonist of cAMP-regulated guanine nucleotide exchange factor 4 (EPAC2) (AID 1645884);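 further: nucleotide exchange releases bodipy-GDP from Rap1 and this lowers its fluorescence; potency means the concentration at half of the fitted maximal effect; nearly all actives have a fitted effect of over 65% in size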
[3] = target: Rap guanine nucleotide exchange factor 3 (Homo sapiens) (UniProt O95398); experiment: Counterscreen qHTS for agonist of cAMP-regulated guanine nucleotide exchange factor 3 (EPAC1) (AID 1645889); conditions: EPAC1 Rap1B-BODIPY-GDP exchange, fluorescence; activation: at 154 µM (top of the series) unless noted; further: nearly all actives have a fitted effect of over 40% in size; further: potency means the concentration at half of the fitted maximal effect; on activation: % of control where 0% means no effect
Outline: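 Measured: fluorescence of BODIPY-GDP bound to Rap1B, which falls as exchange proceeds. Conditions include 50 uM competing GDP, 5 and 30 min reads, and a later cAMP challenge for antagonist detection.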

[4] = target: Vitamin D3 receptor (Homo sapiens) (UniProt P11473); experiment: qHTS for Inhibitors of the vitamin D receptor (VDR): Hit Validation using a Fluorescein Assay (AID 602200); further: potency means the concentration at half of the fitted maximal effect
Outline: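 Fluorescence polarization (Ex 495 nm/Em 520 nm) read after 2 h at room temperature, reporting disruption of binding between 1.5 uM VDR-LBD, liganded by 5 uM LG19078, and 5 nM fluorescein-labelled SRC2-3 coactivator peptide (final concentrations).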

[5] = qHTS for Inhibitors of the vitamin D receptor (VDR): Hit Validation using a Texas Red Assay (AID 602201); further: potency means the concentration at half of the fitted maximal effect
Outline: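 Fluorescence polarization (Ex 595/Em 615 nm) of Texas Red (7 nM) with 1.5 uM VDR-LBD and LG19078 (final concentrations). Compounds were incubated for 2 hours at room temperature.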

[6] = target: Vitamin D3 receptor (Homo sapiens) (UniProt P11473); experiment: qHTS for Inhibitors of the vitamin D receptor (VDR): Hit Validation using a Beta-Lactamase Assay (AID 602202); further: potency means the concentration at half of the fitted maximal effect
Outline: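 Stably transfected HEK293 cells express a VDR–GAL4 DNA-binding-domain fusion driving a UAS beta-lactamase reporter, stimulated by agonist LG190178. Compounds were added 4 h after plating and incubated 18 h. A FRET beta-lactam substrate was then added for 2 h and cleaved substrate emission read at 447 nm.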

[7] = qHTS for Inhibitors of the vitamin D receptor (VDR): Hit Validation using a Cytotoxicity Assay (AID 602204);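 further: cells co-treated with VDR agonist LG190178 at 300 nM; potency means the concentration at half of the fitted maximal effect; nearly all actives have a fitted effect of over 75% in size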
Outline: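 First, 20,000 cells are dispensed per well. Next comes a 4 h incubation, then compound addition and an 18 h incubation. Finally, ATP-based luminescent reagent is added and plates are read after 30 min.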

[8] = target: Tumor susceptibility gene 101 protein (Homo sapiens) (UniProt Q99816); experiment: qHTS Assay for Iinhibitors of HIV-1 Budding by Blocking the Interaction of PTAP/TSG101: Hit Validation (AID 651600); further: potency means the concentration at half of the fitted maximal effect; nearly all actives have a fitted effect of over 70% in size
Outline: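 FITC-PTAP peptide (50 nM final) binding to Tsg101 binding domain (10 uM final) was measured by polarization after 20 min at r.t. with compounds, in 10 mM HEPES pH 7.5 buffer with 0.15 M NaCl and 0.01% Tween 20.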

[9] = AP1 Signaling Pathway (AID 357; active means well fitted curve in either direction with a large enough effect, not every such curve was filed as active; inconclusive means small, poorly fitted or top-dose-only effect, or another doubt;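 further: ME-180 reporter cells stimulated with EGF at its EC50 level; top concentration of the series differs between compounds; on the % scale 0 is the no-effect control and ±100 the full control effect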); conditions: ME-180 (cervical carcinoma) AP-1-bla reporter, EGF-induced, beta-lactamase ratio, 5 h; at 17.2 µM (top of the series) unless noted
Outline: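 First, ME-180 AP-1-bla cells were cultured overnight at 37 °C in low-serum Opti-MEM. Next, titrated compounds with EC50 EGF were incubated 5 hours. Finally, CCF4 was added for 2.5 hours and the 460/530 nm ratio recorded.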

[10] = NFAT Signaling Pathway (AID 444; active means well fitted curve in either direction with a large enough effect, not every such curve was filed as active; inconclusive means small, poorly fitted or top-dose-only effect, or another doubt;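 further: carbachol stimulus at about its EC50 of 1 µM final; on the % scale 0 is the no-effect control and ±100 the full control effect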); conditions: Jurkat NFAT-bla M1, carbachol, beta-lactamase ratio, 5 h; at 17.2 µM (top of the series) unless noted
Outline: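 Jurkat cells carrying an NFAT-driven β-lactamase reporter and co-transfected muscarinic M1 receptor were treated with compound plus carbachol (1 uM final, an EC50 level) for 5 h at 37 °C. CCF4 loading followed for 1 h at RT; 460/530 nm ratio gave %activity.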

[11] = target: Glucocorticoid receptor (Homo sapiens) (UniProt P04150); experiment: GR-GFP Redistribution (AID 450;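 active means compounds whose dose series gives a full or clear partial fitted curve of increased nuclear translocation; inconclusive means weak partial curve or effect only at the top dose; inactive means no dose-dependent translocation response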; further: potency means the concentration at half of the fitted maximal effect); conditions: U2OS GR-GFP nuclear translocation, laser cytometry, 2 h
[12] = qHTS Assay for Identification of Small Molecule Agonists for Thrombopoietin (TPO) Signaling Pathway (AID 917); conditions: TPO signaling pathway reporter cells, agonist qHTS, stimulated with TPO at its EC50; activity, positive = activation: at 38.5 µM (top of the series); further: potency means the concentration at half of the fitted maximal effect
Outline: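 Luciferase reporter (Glycoprotein IIb promoter) in IL-3-deprived Ba/F3 cells carrying human TPO receptor; compounds co-added with 26 pM TPO, incubated 24 h, 37 C. Steadylite luminescence measured after 10 min.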
Tags describe the fitted curve by direction and shape.

Sequence of UniProt Q8WZA2 (Q8WZA2 whole entry, looked up): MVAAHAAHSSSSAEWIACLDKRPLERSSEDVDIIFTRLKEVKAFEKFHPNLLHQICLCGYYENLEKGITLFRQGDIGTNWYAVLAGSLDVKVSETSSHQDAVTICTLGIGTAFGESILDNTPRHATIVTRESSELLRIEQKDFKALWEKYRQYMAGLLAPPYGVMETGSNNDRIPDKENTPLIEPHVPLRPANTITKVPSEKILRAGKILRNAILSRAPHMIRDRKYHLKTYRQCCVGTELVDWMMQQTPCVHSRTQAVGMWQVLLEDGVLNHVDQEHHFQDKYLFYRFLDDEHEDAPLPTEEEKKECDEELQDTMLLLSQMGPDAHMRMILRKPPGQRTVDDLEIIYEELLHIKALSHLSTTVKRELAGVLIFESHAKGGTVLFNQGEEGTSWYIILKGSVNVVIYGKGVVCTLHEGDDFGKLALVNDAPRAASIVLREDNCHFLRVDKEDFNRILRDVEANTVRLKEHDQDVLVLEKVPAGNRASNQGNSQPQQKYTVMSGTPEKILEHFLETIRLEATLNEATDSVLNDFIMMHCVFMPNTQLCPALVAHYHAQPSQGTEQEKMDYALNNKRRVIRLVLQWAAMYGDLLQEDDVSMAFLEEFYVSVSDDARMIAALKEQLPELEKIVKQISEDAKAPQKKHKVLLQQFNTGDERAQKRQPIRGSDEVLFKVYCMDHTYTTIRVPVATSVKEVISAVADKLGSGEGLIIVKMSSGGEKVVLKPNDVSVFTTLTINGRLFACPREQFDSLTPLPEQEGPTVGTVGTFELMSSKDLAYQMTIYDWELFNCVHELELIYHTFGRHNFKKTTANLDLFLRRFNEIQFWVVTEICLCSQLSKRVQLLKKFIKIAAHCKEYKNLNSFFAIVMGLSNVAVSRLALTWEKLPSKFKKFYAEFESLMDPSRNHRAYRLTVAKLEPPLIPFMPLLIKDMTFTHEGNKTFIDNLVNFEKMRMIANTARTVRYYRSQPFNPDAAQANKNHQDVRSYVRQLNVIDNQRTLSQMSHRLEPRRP
Sequence of UniProt O95398 (O95398 whole entry, looked up): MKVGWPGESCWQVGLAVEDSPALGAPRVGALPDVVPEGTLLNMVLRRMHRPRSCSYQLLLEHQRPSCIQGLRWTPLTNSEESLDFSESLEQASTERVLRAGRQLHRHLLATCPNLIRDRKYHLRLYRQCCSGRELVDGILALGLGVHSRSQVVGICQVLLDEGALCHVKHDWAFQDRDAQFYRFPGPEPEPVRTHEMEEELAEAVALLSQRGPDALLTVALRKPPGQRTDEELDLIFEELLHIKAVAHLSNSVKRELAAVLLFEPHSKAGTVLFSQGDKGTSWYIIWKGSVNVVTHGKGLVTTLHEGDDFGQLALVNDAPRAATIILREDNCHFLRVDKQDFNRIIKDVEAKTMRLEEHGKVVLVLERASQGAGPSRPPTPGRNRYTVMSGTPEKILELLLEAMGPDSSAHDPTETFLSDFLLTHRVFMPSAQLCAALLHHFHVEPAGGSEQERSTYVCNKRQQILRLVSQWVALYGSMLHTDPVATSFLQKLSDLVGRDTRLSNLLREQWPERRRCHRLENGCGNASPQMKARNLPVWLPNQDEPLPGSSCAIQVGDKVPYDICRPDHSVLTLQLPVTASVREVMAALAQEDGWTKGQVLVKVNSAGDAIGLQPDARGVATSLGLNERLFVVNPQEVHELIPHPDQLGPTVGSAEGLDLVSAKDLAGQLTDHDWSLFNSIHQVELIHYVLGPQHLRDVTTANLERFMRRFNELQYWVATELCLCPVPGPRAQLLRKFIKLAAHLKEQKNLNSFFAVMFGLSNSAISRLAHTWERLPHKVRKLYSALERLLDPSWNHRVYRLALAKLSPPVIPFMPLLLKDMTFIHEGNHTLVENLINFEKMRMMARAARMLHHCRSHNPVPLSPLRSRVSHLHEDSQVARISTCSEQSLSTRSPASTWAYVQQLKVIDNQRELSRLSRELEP
Sequence of UniProt P11473 (P11473 whole entry, looked up, the tested form may be a part): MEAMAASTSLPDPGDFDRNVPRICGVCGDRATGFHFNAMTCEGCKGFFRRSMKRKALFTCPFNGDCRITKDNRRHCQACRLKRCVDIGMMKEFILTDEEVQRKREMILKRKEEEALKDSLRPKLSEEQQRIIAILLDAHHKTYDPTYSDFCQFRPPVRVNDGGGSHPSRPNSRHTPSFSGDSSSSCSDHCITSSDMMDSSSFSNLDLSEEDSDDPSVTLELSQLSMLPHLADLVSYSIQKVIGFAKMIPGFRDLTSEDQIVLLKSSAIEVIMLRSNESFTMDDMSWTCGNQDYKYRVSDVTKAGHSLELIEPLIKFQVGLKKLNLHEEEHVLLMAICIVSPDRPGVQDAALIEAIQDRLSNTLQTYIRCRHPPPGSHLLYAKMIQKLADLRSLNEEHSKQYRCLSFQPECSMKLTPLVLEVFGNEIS
Sequence of UniProt Q99816 (Q99816 whole entry, looked up, the tested form may be a part): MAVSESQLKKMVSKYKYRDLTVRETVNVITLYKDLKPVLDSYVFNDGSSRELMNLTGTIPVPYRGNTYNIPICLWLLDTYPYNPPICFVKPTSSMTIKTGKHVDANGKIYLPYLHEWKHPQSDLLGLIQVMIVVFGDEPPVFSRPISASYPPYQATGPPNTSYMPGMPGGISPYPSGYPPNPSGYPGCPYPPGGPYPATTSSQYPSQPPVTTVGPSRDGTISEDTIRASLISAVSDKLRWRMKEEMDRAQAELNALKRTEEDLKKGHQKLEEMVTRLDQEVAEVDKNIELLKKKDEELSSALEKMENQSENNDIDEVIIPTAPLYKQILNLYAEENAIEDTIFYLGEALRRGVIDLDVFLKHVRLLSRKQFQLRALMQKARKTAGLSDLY
Sequence of UniProt P04150 (P04150 whole entry, looked up): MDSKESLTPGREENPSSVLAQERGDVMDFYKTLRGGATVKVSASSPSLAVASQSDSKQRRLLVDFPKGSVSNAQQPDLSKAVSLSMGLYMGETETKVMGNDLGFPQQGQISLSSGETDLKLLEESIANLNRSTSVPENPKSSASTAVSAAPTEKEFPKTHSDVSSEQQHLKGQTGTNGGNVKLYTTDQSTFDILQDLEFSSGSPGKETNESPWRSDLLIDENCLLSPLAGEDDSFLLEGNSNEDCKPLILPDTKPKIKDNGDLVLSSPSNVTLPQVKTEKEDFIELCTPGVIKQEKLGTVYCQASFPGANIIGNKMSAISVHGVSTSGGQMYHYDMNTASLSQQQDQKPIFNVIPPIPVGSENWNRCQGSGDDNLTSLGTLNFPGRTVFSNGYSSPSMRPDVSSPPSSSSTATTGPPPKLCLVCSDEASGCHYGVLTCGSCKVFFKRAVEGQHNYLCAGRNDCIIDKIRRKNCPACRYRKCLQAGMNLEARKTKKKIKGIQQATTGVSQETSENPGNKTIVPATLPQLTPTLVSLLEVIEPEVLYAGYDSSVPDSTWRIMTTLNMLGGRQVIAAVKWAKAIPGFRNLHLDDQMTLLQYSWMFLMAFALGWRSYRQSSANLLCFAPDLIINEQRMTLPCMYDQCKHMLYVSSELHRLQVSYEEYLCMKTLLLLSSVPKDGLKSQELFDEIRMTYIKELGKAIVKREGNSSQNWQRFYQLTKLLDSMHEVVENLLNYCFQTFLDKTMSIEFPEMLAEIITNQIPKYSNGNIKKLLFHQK

Q: For `CC[n+]1c(/C=C/C=C/N(C(C)=O)c2ccccc2)sc2cc(OC)ccc21`, which Potency [1] is on record?
A: active: 100 µM

Q: What about the Potency [2] of the same compound?
A: active: 112 µM

Q: And the Potency [3]?
A: active: 50.1 µM

Q: For `COC(CNC(=O)c1ccc2c3c(onc13)-c1ccccc1C2=O)OC`, which Potency [4] is on record?
A: inconclusive [inhibitor, partial curve]

Q: And the Potency [5]?
A: inconclusive [inhibitor, full curve, poor fit]

Q: What about the Potency [6] of the same compound?
A: inconclusive [inhibitor, single point]

Q: What about the Potency [7] of the same compound?
A: inconclusive [cytotoxic, single point]

Q: And the Potency [1]?
A: active: 50.1 µM

Q: And the Potency [2]?
A: active: 100 µM

Q: And the Potency [3]?
A: inconclusive [activator, partial curve, poor fit]

Q: What does the source list for `Cc1c2ccccc2nc2c(F)c(NCCO)c(F)c(F)c12`?
A: Potency [1]: inconclusive [activator, partial curve, poor fit]; Potency [2]: inconclusive [activator, single point]; activation [3]: inconclusive: 47.8% [activator]

Q: What does the source list for `Cc1ccc(CNC(=O)c2cccc3c2C(=O)c2ccc(N4CCC(C)CC4)cc2S3(=O)=O)cc1`?
A: Potency [1]: inconclusive [activator, partial curve, poor fit]; Potency [2]: inconclusive [activator, single point]; Potency [3]: active: 11.2 µM

Q: With `COc1ccc(-c2onc3ccc(C(C)=O)cc23)cc1` as the compound, how does the Potency [1] read?
A: active: 79.4 µM

Q: What about the Potency [2] of the same compound?
A: active: 79.4 µM

Q: And the Potency [3]?
A: inconclusive [activator, full curve, poor fit]

Q: Which results are given for `COC(=O)c1ccc(Cn2nc(-c3cc(C)ccc3C)ccc2=O)cc1`?
A: Potency [1]: inconclusive [activator, partial curve, poor fit]; Potency [2]: inconclusive [activator, partial curve, poor fit]; Potency [3]: inactive

Q: For `CCN1CCc2c(sc(NC(=O)Nc3ccc(Cl)c(Cl)c3)c2C(N)=O)C1`, which Potency [8] is on record?
A: inconclusive [inhibitor, partial curve]

Q: What about the Potency [1] of the same compound?
A: inconclusive [activator, single point]

Q: And the Potency [2]?
A: inconclusive [activator, single point]

Q: What about the Potency [3] of the same compound?
A: active: 112 µM

Q: Which Potency [1] does the source give for `Nc1ccc2nc3c(=O)n(C4CCCCC4)c(=O)[nH]c3nc2c1` here?
A: inconclusive [activator, partial curve, poor fit]

Q: And the Potency [2]?
A: inconclusive [activator, partial curve, poor fit]

Q: And the Potency [3]?
A: active: 22.4 µM

Q: Which results are given for `COc1ccc2c3c(cccc13)C(=O)CC2`?
A: Potency [1]: inconclusive [activator, partial curve, poor fit]; Potency [2]: active: 112 µM; Potency [3]: active: 31.6 µM

Q: Which Potency [1] does the source give for `CCOC(=O)c1sc(NC(=O)CN2C(=O)NC3(CC(C)CC(C)(C)C3)C2=O)cc1C` (stereo not given) here?
A: inconclusive [activator, single point]

Q: What about the Potency [2] of the same compound?
A: inconclusive [activator, single point]

Q: What about the Potency [3] of the same compound?
A: active: 89.1 µM

Q: With `CN(C)c1ccc(/C=C(\C#N)C(=O)Nc2nc3c(s2)CCN(Cc2ccccc2)C3)cc1` as the compound, how does the Potency [1] read?
A: active: 100 µM

Q: And the Potency [2]?
A: active: 100 µM

Q: What about the Potency [3] of the same compound?
A: inconclusive [activator, partial curve, poor fit]

Q: For `CNC(=O)c1csc(Cc2c(Cl)sc3ccc(Cl)cc23)n1`, which Potency [1] is on record?
A: inconclusive [activator, partial curve]

Q: And the Potency [2]?
A: inconclusive [activator, partial curve, poor fit]

Q: What about the Potency [3] of the same compound?
A: inconclusive [activator, full curve, poor fit]

Q: Which results are given for `Nc1c(C(=O)C2CC2)sc2nc(-c3cccs3)cc(C(F)(F)F)c12`?
A: Potency [1]: inconclusive [activator, partial curve, poor fit]; Potency [2]: active: 100 µM; Potency [3]: inconclusive [activator, full curve, poor fit]

Q: What does the source list for `CCN(CC)c1ccc2c(c1)OC(N)=C(C#N)C2c1cccnc1` (stereo not given)?
A: Potency [1]: active: 89.1 µM; Potency [2]: active: 100 µM; Potency [3]: active: 35.5 µM

Q: Which activity change, negative = inhibition [9] does the source give for `CC(=O)[C@@]1(O)Cc2c(O)c3c(c(O)c2[C@H](O[C@H]2C[C@H](N)[C@H](O)[C@H](C)O2)C1)C(=O)c1ccccc1C3=O` here?
A: active: -110% [at 38 µM]

Q: What about the activity change, negative = inhibition [10] of the same compound?
A: active: -116% [at 38 µM]

Q: What about the Potency [11] of the same compound?
A: inconclusive [single point]

Q: What about the Potency [12] of the same compound?
A: inconclusive [inhibitor, full curve]

Q: And the Potency [1]?
A: inconclusive [activator, partial curve, poor fit]

Q: What about the Potency [2] of the same compound?
A: inconclusive [activator, single point]

Q: And the Potency [3]?
A: active: 12.6 µM

Q: Which Potency [1] does the source give for `Nc1c(C(=O)c2ccccc2)sc2nsc(SCCN3CCCC3)c12` here?
A: active: 100 µM

Q: What about the Potency [2] of the same compound?
A: active: 100 µM

Q: What about the Potency [3] of the same compound?
A: active: 39.8 µM

Q: What does the source list for `COc1ccc(S(=O)(=O)/N=C2\C=C(NS(=O)(=O)c3ccccc3)C(=O)c3ccccc32)cc1`?
A: Potency [1]: active: 50.1 µM; Potency [2]: active: 100 µM; Potency [3]: inactive

From PubChem BioAssay (NCATS)
